Reference: PubChem BioAssay AID1508642 (National Center for Advancing Translational Sciences (NCATS), 2021)
About 200 (0.47%) of roughly 43,000 compounds were called active. The shares of active, inactive and inconclusive entries below differ from those in the screen. Calls follow the shape of the dose curve; as a rule, active = well fitted cell-killing curve with a large enough effect; inconclusive = small, poorly fitted or top-dose-only effect, or effect the other way; inactive = flat fitted curve, though single readings scatter. Potencies beside an inconclusive call are fits to weak or partial responses and may not hold up.

Experiment: Cell viability qHTS assay in S16 Pmp22-F2sN cells; also: nearly all actives have a fitted effect of over 65% in size
Conditions: S16 Pmp22-F2sN Schwann cells (luciferase reporters placed in the Pmp22 gene) viability, CellTiter-Glo, 24 h; activity change, negative = cytotoxicity: at 57.5 µM (top of the series)
Summary of the method: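 Seed 500-1,000 S16 Pmp22-F2sN cells per well in phenol-red-free DMEM with 10% heat-inactivated FBS; pin-add 23 nL compound; incubate 24 h at 37C; add CellTiter-Glo, wait 15 min protected from light; read luminescence.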
% is scaled to controls: 0 for no effect and ±100 for the full control effect; potency is read from the fitted curve at half-maximal effect; tags tell the direction and shape of the fitted curve.

With `Cc1nn(-c2ccccc2)c2sc(C(=O)Nc3cccc(Cl)c3)cc12` as the molecule, how does the Potency read?
The Potency was inconclusive: 39.8 µM [cytotoxic, single point].

For `COc1cc(NC(=O)CCc2c(C)nc3c(-c4ccc(F)cc4)c(C)nn3c2C)cc(OC)c1OC`, which Potency is on record?
Its Potency is inconclusive: 25.1 µM [rising, partial curve, poor fit].

For `CCc1ccccc1NC(=O)c1ccc(Cn2nc(N3CCN(c4ccccc4)CC3)ccc2=O)o1`, which Potency is on record?
Its Potency is inconclusive: 3.16 µM [rising, single point].

With `CCOC(=O)c1cc2c(=O)n3ccccc3nc2n(Cc2ccco2)c1=NC(=O)c1cccc(C)c1` as the molecule, how does the Potency read?
The Potency was inconclusive: 39.8 µM [cytotoxic, single point].

With `CCOC(=O)Cc1c(C)nc2cc(-c3ccc(C(C)(C)C)cc3)nn2c1C` as the molecule, how does the Potency read?
Its Potency is inconclusive: 22.4 µM [cytotoxic, single point].

Which “activity change, negative = cytotoxicity” value does the source give for `Cc1ccc(NC(=O)c2c3c(nc4ccccc24)C(=O)N(C2CCCCC2)C3)cc1F` here?
Its value is inactive: -2.11%.

For `CCc1nc2ccc(C(=O)N3CCN(c4cc(C)ccc4C)CC3)cc2nc1CC`, which Potency is on record?
Its Potency is inconclusive: 39.8 µM [cytotoxic, single point].

Which Potency does the source give for `Fc1ccc(CSc2nncn3c2cc2occc23)c(Cl)c1` here?
The Potency was inconclusive: 39.8 µM [cytotoxic, single point].

With `Cc1cc(OC(C)C(=O)N2CCC(c3nc4ccccc4o3)CC2)ccc1Cl` (stereo unspecified) as the molecule, how does the Potency read?
Its Potency is inconclusive: 35.5 µM [cytotoxic, partial curve, poor fit].

Which Potency does the source give for `CCCCN(C)S(=O)(=O)c1ccc(NC2=NS(=O)(=O)c3ccccc32)cc1` here?
The Potency was inconclusive: 39.8 µM [rising, single point].

For `COC(=O)c1ccc(Nc2nc(-c3ccccc3Cl)nc3ccccc23)cc1`, which “activity change, negative = cytotoxicity” value is on record?
Its value is inactive: 19.4%.

For `Clc1cccc(-c2nc3ccccn3c2Nc2ccc3c(c2)OCCO3)c1`, which Potency is on record?
Its Potency is inconclusive: 39.8 µM [cytotoxic, single point].

For `Cc1cccn2c(=O)c3cc(C#N)c(=O)n(-c4nnc(SCc5ccc(F)cc5)s4)c3nc12`, which Potency is on record?
The Potency was inconclusive: 17.8 µM [rising, partial curve, poor fit].

For `CSc1ccc(/C=C/c2nc3ccccc3n2S(=O)(=O)c2ccc(Br)cc2)cc1`, which Potency is on record?
The Potency was inconclusive: 22.4 µM [cytotoxic, single point].

With `CCOC(=O)c1c(C)[nH]c(C)c1S(=O)(=O)N1CCCC(C(=O)Nc2cccc(CC)c2)C1` (stereo unspecified) as the molecule, how does the Potency read?
Its Potency is inconclusive: 39.8 µM [cytotoxic, partial curve, poor fit].

With `Cc1cccc(Nc2cc(C)nc(-n3nc(C)cc3C)n2)c1` as the molecule, how does the Potency read?
Its Potency is inconclusive: 7.08 µM [cytotoxic, single point].

For `CCOc1ccc(CN2C(=O)C(=O)c3cccc(C)c32)cc1OC`, which “activity change, negative = cytotoxicity” value is on record?
The value was inactive: 14%.

For `Cc1c(C(=O)Nc2ccc(F)cc2)oc2ccc(S(=O)(=O)N3CCCCCC3)cc12`, which “activity change, negative = cytotoxicity” value is on record?
Its value is inactive: -28.5%.

Which Potency does the source give for `CCc1cccc(N2C(=O)CS(=O)(=O)C23C(=O)N(Cc2ccccc2)c2ccc(C)cc23)c1` (stereo unspecified) here?
Its Potency is inconclusive: 8.91 µM [rising, full curve, poor fit].

For `Cc1cccc(CCNC(=O)c2cc3c(=O)[nH]c4ccc(C)cc4c3s2)c1`, which Potency is on record?
The Potency was inconclusive: 1 µM [rising, full curve].

Which Potency does the source give for `CCn1cc(C(=O)NCCN(CC(C)C)CC(C)C)c(=O)c2cc(S(=O)(=O)N(C)C3CCCCC3)ccc21` here?
Its Potency is inconclusive: 7.08 µM [rising, partial curve, poor fit].

Which “activity change, negative = cytotoxicity” value does the source give for `CCC(=O)N1CCc2cc(S(=O)(=O)NC(Cc3ccccc3)C(=O)NCc3ccccc3OC)ccc21` (stereo unspecified) here?
Its value is inactive: -15.3%.

For `CC(C)(C)c1ccc(C(=O)Nc2ccc(NC(=O)c3ccc(Cl)c(Cl)c3)cc2)cc1`, which Potency is on record?
The Potency was inconclusive: 22.4 µM [cytotoxic, partial curve, poor fit].

Which Potency does the source give for `CCC(Oc1ccccc1)C(=O)Nc1cc(-c2ccccc2F)nn1-c1ccccc1` (stereo unspecified) here?
Its Potency is inconclusive: 17.8 µM [cytotoxic, partial curve, poor fit].

For `CCN1CCN(c2nc3c(S(=O)(=O)c4ccc(C)cc4)nnn3c3ccsc23)CC1`, which “activity change, negative = cytotoxicity” value is on record?
The value was inactive: -20%.

With `CC(C)c1ccc(NC(=O)Cc2ccc(NC(=O)N3CCCCc4ccccc43)cc2)cc1` as the molecule, how does the Potency read?
The Potency was inconclusive: 39.8 µM [cytotoxic, single point].

With `CCOc1cccc(CNC(=O)c2ccc(N3CCCC3)c(NC(=O)Nc3ccccc3CC)c2)c1` as the molecule, how does the Potency read?
The Potency was inconclusive: 31.6 µM [cytotoxic, single point].

For `COc1ccccc1NC(=O)c1ccc(-c2nc(COc3ccc(C)cc3)c(C)o2)cc1`, which Potency is on record?
Its Potency is inconclusive: 25.1 µM [cytotoxic, single point].

For `CCc1nn(CC(=O)NCCc2ccc(OC)c(OC)c2)c(=O)c2cc3occc3n12`, which Potency is on record?
Its Potency is inconclusive: 6.31 µM [rising, full curve, poor fit].

Which Potency does the source give for `COc1ccccc1Nc1nn2c(=O)c3ccc(C(=O)NCc4cccs4)cc3nc2s1` here?
Its Potency is active: 7.94 µM.

Which “activity change, negative = cytotoxicity” value does the source give for `CCCN(CCC)C(=O)CSc1nnc2cc(C)c3cc(C)cc(C)c3n12` here?
The value was inactive: 13.6%.

Which Potency does the source give for `Cc1cccc(OCc2ccc(-c3nc(C#N)c(NCCN(C)C)o3)o2)c1` here?
Its Potency is inconclusive: 39.8 µM [cytotoxic, partial curve, poor fit].

With `COc1ccc2c(c1)c1c(c(=O)n(-c3ccccc3C)c(=O)n1CC(=O)NCc1ccc(C)cc1)n2C` as the molecule, how does the Potency read?
The Potency was inconclusive: 39.8 µM [rising, single point].

With `COCCN1C(=O)c2[nH]nc(-c3ccccc3O)c2C1c1ccc(OCc2ccccc2)c(OC)c1` (stereo unspecified) as the molecule, how does the Potency read?
Its Potency is inconclusive: 39.8 µM [cytotoxic, single point].

Which Potency does the source give for `CCc1ccc(N(CC)C(=O)c2ccc3c(=O)n4c(nc3c2)CCCCC4)cc1` here?
Its Potency is inconclusive: 25.1 µM [cytotoxic, single point].

Which Potency does the source give for `O=C(Nc1cc(Cl)cc(Cl)c1)c1ccc(F)c(S(=O)(=O)NC2CCCC2)c1` here?
The Potency was inconclusive: 39.8 µM [cytotoxic, single point].

For `Cc1ccc(-c2nnc(Nc3cccc(Cl)c3)c3ccccc23)cc1S(=O)(=O)NCC1CCCO1` (stereo unspecified), which Potency is on record?
The Potency was inconclusive: 39.8 µM [cytotoxic, single point].

With `CNc1nc(Oc2ccc(=O)n(C)n2)nc(N2CCOCC2)n1` as the molecule, how does the Potency read?
Its Potency is inconclusive: 35.5 µM [cytotoxic, partial curve, poor fit].

With `COc1ccc(-c2nc(CN3CCC(C(=O)NCCCN4CCN(c5ccccc5F)CC4)CC3)c(C)o2)cc1OC` as the molecule, how does the Potency read?
Its Potency is inconclusive: 39.8 µM [cytotoxic, single point].

With `O=C(Nc1cc(-c2nc3cc(Cl)ccc3o2)ccc1Cl)c1cccs1` as the molecule, how does the Potency read?
Its Potency is inconclusive: 0.199 µM [cytotoxic, full curve].

For `Cc1ccc(NC(=O)CS(=O)(=O)c2nc(-c3ccc(C)cc3)cn2-c2ccc(C)cc2)cc1`, which Potency is on record?
Its Potency is inconclusive: 22.4 µM [cytotoxic, partial curve, poor fit].

For `Cc1ccc(C(=O)Nc2ccc(-c3nc4ccccc4s3)c(O)c2)c(C)c1`, which “activity change, negative = cytotoxicity” value is on record?
The value was inactive: 6.91%.

For `COCCCNC(=O)c1c(NC(=O)c2nc(S(C)(=O)=O)ncc2Cl)sc2c1CCCC2`, which Potency is on record?
Its Potency is active: 3.55 µM.

For `COc1ccc(OC)c(NC(=O)c2c(NCc3ccc(C)o3)sc3c2CCC(C)C3)c1` (stereo unspecified), which Potency is on record?
The Potency was inconclusive: 31.6 µM [cytotoxic, single point].

Which Potency does the source give for `Cc1cccc(N(CC(=O)Nc2ccc(Br)cc2)S(C)(=O)=O)c1C` here?
Its Potency is inconclusive: 22.4 µM [cytotoxic, partial curve, poor fit].

Which “activity change, negative = cytotoxicity” value does the source give for `Cc1cc(OC(=O)c2cc(-c3ccc4c(c3)OCCO4)on2)ccc1Cl` here?
The value was inactive: 0.406%.

For `O=C(NCC(c1cccnc1)N1CCN(Cc2ccccc2)CC1)C(=O)Nc1ccc(Cl)cc1` (stereo unspecified), which Potency is on record?
The Potency was inconclusive: 31.6 µM [cytotoxic, single point].

Which “activity change, negative = cytotoxicity” value does the source give for `CCC(C)NC(=O)c1ccc(-n2c(-c3ccccc3)cc3c2CCCC3)cc1` (stereo unspecified) here?
The value was inactive: 3.8%.

With `Cc1cccc(C(=O)NCCc2sc(-c3ccccc3)nc2C)c1` as the molecule, how does the Potency read?
Its Potency is inconclusive: 0.141 µM [rising, full curve, poor fit].

For `O=C(CSc1nc2c(oc3ccccc32)c(=O)n1Cc1ccco1)Nc1cccc(Cl)c1`, which Potency is on record?
The Potency was inconclusive: 2.82 µM [rising, single point].

For `CCc1ccccc1NC(=O)CN1C(=O)CCc2cc(S(=O)(=O)N3CCCCC3)ccc21`, which Potency is on record?
The Potency was inconclusive: 1 µM [cytotoxic, full curve].

Which Potency does the source give for `COc1ccccc1/C=C/c1nc(C#N)c(N2CCCCCC2)o1` here?
Its Potency is inconclusive: 25.1 µM [cytotoxic, single point].

Which Potency does the source give for `CC1CCCN(S(=O)(=O)c2ccc(NC(=O)c3nc(SC(C)C)ncc3Cl)cc2)C1` (stereo unspecified) here?
The Potency was inconclusive: 31.6 µM [cytotoxic, single point].

For `COc1ccccc1Nc1cc(C(=O)NCCCN(C)c2ccccc2)c2ccccc2n1`, which Potency is on record?
Its Potency is inconclusive: 11.2 µM [cytotoxic, partial curve, poor fit].

Which Potency does the source give for `CCCCN(CC)CCNC(=O)c1cc2c(-c3ccc(Cl)cc3)nn(C)c2s1` here?
Its Potency is inconclusive: 39.8 µM [cytotoxic, single point].

Which “activity change, negative = cytotoxicity” value does the source give for `COc1ccc(NC(=O)N(Cc2nnc3n2CCCCC3)c2ccc(OC)c(Cl)c2)cc1` here?
The value was inactive: 12%.

Which “activity change, negative = cytotoxicity” value does the source give for `Cc1ccc(Cn2c(=O)n(CC3CCC(C(=O)N4CCOCC4)CC3)c(=O)c3sccc32)cc1` (stereo unspecified) here?
Its value is inactive: 3.9%.

For `CSc1cccc(Nc2cc(C(=O)NCCCN(Cc3ccccc3)C(C)C)c3ccccc3n2)c1`, which Potency is on record?
The Potency was inconclusive: 35.5 µM [cytotoxic, single point].

With `Cc1ccc(CCNc2ncnc3onc(C)c23)cc1` as the molecule, how does the Potency read?
The Potency was inconclusive: 1.78 µM [cytotoxic, full curve, poor fit].

With `Cc1ccc(C)c(NC(=O)C(Cc2ccccc2)N2Cc3ccccc3C2=O)c1` (stereo unspecified) as the molecule, how does the “activity change, negative = cytotoxicity” value read?
The value was inactive: -13.3%.

Which “activity change, negative = cytotoxicity” value does the source give for `Cc1ccccc1Nc1cc(C(=O)NC2CCCCC2)c2ccccc2n1` here?
The value was inactive: 16%.
